Patent US11224646B2, “Intranasal delivery of a cyclic-di-nucleotide adjuvanted vaccine for tuberculosis” (priority 2018, dated 2022)

Tested on: M. tuberculosis strain Erdman
Details: mouse, in vivo

## Nc1nc2c(ncn2[C@@H]2O[C@@H]3COP(=O)(S)O[C@H]4[C@@H](O)[C@H](n5cnc6c(N)ncnc65)O[C@@H]4CO[P@@](=O)(S)O[C@@H]2[C@@H]3O)c(=O)[nH]1 (some centres unmarked) [ML-RR-cGAMP, dithio-[RP, RP]-cyclic-[G(2′,5′)pA(3′,5′)p]]
  additional protection afforded by intranasal administration: reduced
sc
  dependence of protection on IL-17: independent of IL-17
